Data reported in the supplement of paper PMC11417369.
± gives the standard deviation of the averaged measurements. The list shows a part of the results.

system: PfAP2-G AP2 domain (GST-tagged); assay: gcPBM binding intensity (ln(normalized median fluorescence intensity)); higher = stronger DNA binding
Summary of the method: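 Binding intensity is defined as the maximum Masliner-normalised natural-log median intensity across replicate spots for either probe orientation. It was measured on an Agilent 4 × 180k array of primer-extended double-stranded 36-bp intergenic genomic probes and negative controls, to which GST-tagged P. falciparum DNA-binding domains made in E. coli were applied for 1 h in 1× PBS with 1% milk, 0.2 mg/ml BSA, 0.5% salmon testes DNA and 0.03% Triton X-100. Detection was by Alexa488 anti-GST antibody and scanning at 488 nm.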

Sequence	gcPBM binding intensity (ln)
ATACATCAAGGACACACACACACACCCACACCCACA [CACACA_site8013]	10.9 ± 0.6
GAAACATACATTTTTTGTCCGTAAGTATTATAATAA [XGTACX_site3273]	11 ± 0.55
AGTAGAATATCCCCTACACACCCAAATAATTTACAA [CACACA_site8339]	10.2 ± 0.11
AACTTACTTGGACATACACACATATATATATATATA [CACACA_site2978]	10.7 ± 0.49
TTTATATATTTTAGGTGTACATAAATTTTTATATAT [XGTACX_site5597]	11.7 ± 1.1
TCAAATATTCATAAATGTACATTTATTTTTCTCCTT [XGTACX_site5827]	10.7 ± 0.35
TAACTTAATATTAATGCACACAATTTATATATATAT [CACACA_site3903]	10 ± 0.2
CTATGAATAGGAAAAAGTACTAAACCTTTATATATA [XGTACX_site5022]	11 ± 0.49
ATTTTGCCTGACCCATGTACATATTATTTTTTGCAT [XGTACX_site2258]	11.3 ± 0.43
CACATAAAAATTGTGTTGCACTTTTATTCTTATATC	10.5 ± 0.35
GTAACAAATTAATAGTGTACATATTTTAAAAAAATA [XGTACX_site7150]	11.6 ± 0.88
TTTTGTTGAAAAAAAAAAAAAAAATTAAATTAAATT [GTGCAC_negctrl_site636]	9.535 ± 0.035
CATAGACACGAACATACACACGGACATACATACGGA [CACACA_site8101]	10.9 ± 0.55
AATGCAAAGGTGAAAGAACACACAAAAAAAAAAAAA [CACACA_site9333]	9.85 ± 0.4
GTGTTAAATTTTTGAACATGCAAGTTTTATTATTGA [TGCATGCA_site478]	9.78 ± 0.028
TATTTAAAAAACACATGTACGAGTATTATATATAAA [XGTACX_site6654]	11.1 ± 0.65
TATTGTATATAATAAACACACAATATTAAAAATATA [CACACA_site1057]	9.78 ± 0.12
GATTCATCTAAACACCGTACATATTATATATATATA [XGTACX_site6030]	10.7 ± 0.39
AAACTCAACTTATATACACACAATCTTTTTTTTTTA [CACACA_site29]	9.905 ± 0.078
CCCCTCGAAATAATTTGTACGAATATATTGTCTGTA [XGTACX_site8308]	11.6 ± 1.1
TAATATACTTAATACACACACGAATATTTATAAATA [CACACA_site6675]	10.3 ± 0.3
GTTCATAAATTAAACACACACACACCGCTGGATACC [CACACA_site5779]	10.5 ± 0.31

Sequence	gcPBM binding intensity (ln)
AGTATATTAAAAAATACACACGTATTATATCTACAT [CACACA_site8844]	10.11 ± 0.028
TAAAAAAAAAACATCTGTACCAATTTTTATGTATAA [XGTACX_site5196]	10.8 ± 0.4
AATAAAAGTTCACCTGTACACACATATATATATGTA [CACACA_site8500]	11.3 ± 0.76
ATGTATTTATATACTTGTACGTAAGATGTATTATAT [XGTACX_site908]	11.5 ± 1.1
ATATTAAAATACAGTGCATGTTAAAAATATATTATA [TGCATGCA_site977]	10.1 ± 0.2
TTATAACATCTTAAATGTACAAATATGTGCTTATTT [XGTACX_site7285]	10.7 ± 0.55
AATAATAATAGAAACACACACACATCTTTAATAATA [CACACA_site4805]	9.995 ± 0.049
ATATTTTTTTTCTACACACATACAAATATATATTAT [CACACA_site2359]	10.12 ± 0.085
ATTGGAAAATATGTTATATATATATATATATATATG [CACACA_negctrl_site116]	9.73 ± 0.11
TTAATTCGTACATACACACGCACATATATATATATA [CACACA_site1469]	11.3 ± 0.74
AATAACTTTTTAAACACACACACATATAAATAAATA [CACACA_site6196]	10.2 ± 0.13
ACATGCAACCATTCGGGTACAGAAATAAATATATAC [XGTACX_site4174]	11.5 ± 1.1
CTTTTTCGCATGAAAAGTACATGAAATATATTACAT [XGTACX_site8971]	11.2 ± 0.77
TAAATTTTAATAAATACACACAAATTTTAATTCTAT [CACACA_site6039]	9.895 ± 0.035
GGTTATAACGCACATGCACACGTAAATAAATATTAT [CACACA_site9277]	10.4 ± 0.21
AAGACAAAACAAAGAAGTACATATATATATATATAT [XGTACX_site4067]	11.3 ± 1.1
CATCTTAAATAAGAACGTACATTTTTTTTGATGAGA [XGTACX_site3462]	11.2 ± 0.73
TAATTTAAAAATGAACATATATATGTATGTAAATAT [TGCATGCA_negctrl_site135]	10.025 ± 0.007
TCTTCACCACGTGGAAGTACATAAAAAGATACACAA [XGTACX_site4747]	11.4 ± 0.93
ATGTATATATTTATGTGTACTTAAATTTTTTTTTGT [XGTACX_site8179]	11.6 ± 0.93
TTTTAATATATAGAGTAACAAATTTGTCTATTAATA [CACACA_negctrl_site1495]	9.835 ± 0.007
GGAGACTTTGTACAAACACACACATGAACACAATAT [CACACA_site8376]	10.9 ± 0.61
